Measured values from publication PMC9574860, “Chemical Toolkit for PARK7: Potent, Selective, and High-Throughput” (Journal of Medicinal Chemistry, 2022).
The whole screen tested about 7,900 compounds, of which about 400 (5.1%) showed an effect of 50% or more. The list shows a part of the results.

Target: Parkinson's disease protein 7 (PARK7/DJ1) (human, UniProt Q99497)
Experiment: primary screen, percent inhibition; read as competition with a fluorescent probe by fluorescence polarization; higher = more effect of the substance
Details: 100 µM
Method in brief: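 Covalent fragments at 100 μM final were incubated 2 h with 0.2 μM PARK7, then 20 nM probe JYQ-107 added for a further 2 h. Fluorescence polarization read at 480/520 nm; relative FP loss versus reference controls gave remaining enzyme activity.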

Chain of Parkinson's disease protein 7 (PARK7/DJ1) (Q99497 whole entry, looked up): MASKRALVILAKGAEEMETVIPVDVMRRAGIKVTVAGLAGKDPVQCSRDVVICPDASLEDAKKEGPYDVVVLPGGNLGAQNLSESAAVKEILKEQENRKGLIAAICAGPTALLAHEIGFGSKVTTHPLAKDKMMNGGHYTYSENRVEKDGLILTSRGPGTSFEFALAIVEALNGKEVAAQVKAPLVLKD

| Structure (SMILES) | Inhibition % |
| --- | --- |
| C=CC(=O)NC1CCOC1(C)C (stereo not drawn) | -0.151% |
| Cc1cccc(C2=NC(=Cc3cnn(C)c3)C(=O)O2)c1 | 2.85% |
| COc1ccc(C(=O)CCl)cc1Cl | 95.9% |
| Nc1cccc(OC2CC(=O)N2)c1 (stereo not drawn) | 18.6% |
| C=CC(=O)N1CC2(CCC2)C2COCC21 (stereo not drawn) | 14.3% |
| Cc1nsc(N2CCC(C3NC(=O)C3(C)C)CC2)n1 (stereo not drawn) | -0.128% |
| C=CC(=O)NC1CC(OCC)C12CCCCC2 (stereo not drawn) | 4.59% |
| CC1(C)OB(c2ccc(F)c(OC(F)F)c2)OC1(C)C | 7.71% |
| Cc1n[nH]c(C)c1CNC(=O)c1cccnc1S | 7.62% |
| C=CC(=O)N1CC(C2CCOC2)C1 (stereo not drawn) | 8.11% |
| O=C(CCl)N1c2ccccc2NC(=O)C12CCCC2 | 42.3% |
| N#Cc1ccn2ncc(C(=O)O)c2c1 | 13.4% |
| O=S(=O)(F)CCS(=O)(=O)c1ccc(Cl)cc1 | 4.77% |
| Cc1nc(CCN2C(=O)SC(C)(C)C2=O)cs1 | 17.3% |
| CN(C)Cc1nc(S)c2ccccc2n1 | 0.786% |
| N#Cc1ncccc1N1CCCC1CF (stereo not drawn) | -3.5% |
| C=CC(=O)NCC(=O)NCC1(C#N)CC1 | 4% |
| COc1ccc(CN(C(=O)CCl)C2CC2)cc1 | 15.6% |
| Cc1ccc(NC(=O)NC(=O)CCl)c(C)c1 | 2.37% |
| C=CC(=O)N1CCCC1C(=O)Nc1nc2ccccc2s1 (stereo not drawn) | 43.9% |
| O=C(CN1CCSC1=O)N1CCCCC1 | 7.42% |
| COc1ccc(Cl)cc1S(=O)(=O)n1cnc(C)c1 | 5.84% |
| O=C1CCN1c1ccccc1 | 5.28% |
| COC(=O)c1cc([N+](=O)[O-])cc(B2OC(C)(C)C(C)(C)O2)c1C | 12.9% |
| C=CC(=O)N1CCOC[C@@H]1CC(C)C | 6.89% |
| O=C(CCl)Nc1ccc(Cl)cc1C(F)(F)F | 2.37% |

| Structure (SMILES) | Inhibition % |
| --- | --- |
| CC1CN(C(=O)C=Cc2ccnn2C)CCN1 (stereo not drawn) | 13.1% |
| Cc1cc(I)ccc1NC(=O)CCl | 7.36% |
| O=C(O)CC1C=CS(=O)(=O)C1 (stereo not drawn) | 7.6% |
| N#Cc1ncn(CC(=O)NCCc2cccc(Cl)c2)n1 | 7.82% |
| C=CC(=O)N1CCc2ccc(C(=O)O)cc2CC1 | 4.84% |
| CNCc1ccccc1B1OC(C)(C)C(C)(C)O1 | 2.09% |
| O=C1c2ccccc2C(=O)N1CCOCCS | 4.53% |
| CCOc1cc(C)c(C)cc1S(=O)(=O)n1ccnc1 | -3.83% |
| Cn1ccc(NS(=O)(=O)c2cccc(S(=O)(=O)F)c2)n1 | 97.7% |
| C=CC(=O)Nc1ccc(Br)cc1 | 6.59% |
| CN(c1nccs1)S(=O)(=O)C=Cc1ccccc1 | 7.29% |
| CC1(C)OB(c2ccc3cc(N)ccc3c2)OC1(C)C | 87.8% |
| C=CCN1C(=O)CSC1=CC#N | 9.19% |
| O=C(CCl)NNC(=O)[C@@H]1C[C@H]1c1ccc(Cl)cc1 (racemic) | 4.78% |
| N#CC(=Cc1ccc(OCC(F)F)cc1)C(N)=O | 15.7% |
| CC1(C)OB(c2ccccc2O)OC1(C)C | 3.67% |
| N#Cc1cnc2c(F)cccn12 | 11.6% |
| C=C(Cl)CSc1nc2ccsc2c(=O)n1C | 13.1% |
| C=CC(=O)N1CCN(C2CCNC(=O)CC2)CC1 (stereo not drawn) | 25.1% |
| O=S(=O)(F)c1ccc(S(=O)(=O)Nc2ncccc2Cl)cc1 | 32.9% |
| C=CC(=O)NCc1ccccc1 | 1.76% |
| O=C(CN1CCSC1=O)Nc1nccs1 | 10.1% |
| O=C1CCC(=O)N1CCC(=O)N1CCC1c1ccccc1 (stereo not drawn) | 7.6% |
| C=CC(=O)N(C)Cc1ncc(C2CC2)o1 | 10.7% |
| C=CC(=O)N1CCC(C)(C(C)C)CC1 | 12.6% |
| CCOc1cc(C)c(C(C)C)cc1S(=O)(=O)n1ccnc1 | 6.3% |

| Structure (SMILES) | Inhibition % |
| --- | --- |
| Cc1nn(-c2ccccc2)c(C)c1CNC(=O)CCl | 13.2% |
| N#CC=Cc1ccc(F)c(F)c1 | -4.2% |
| O=S(=O)(F)c1c[nH]c2ncc(Br)cc12 | 7.67% |
| OB(O)c1ccc(OCc2ccccc2)cc1F | 10.7% |
| O=C(CCl)Nc1cccc(Cl)c1N1CCOCC1 | 8.83% |
| N#Cc1cc(C(=O)Nc2ccccc2)c(N)nc1S | 1.51% |
| Cc1nn(S(=O)(=O)N2CCCC2)c(C)c1C | 7.29% |
| C=CC(=O)N1CC(=O)Nc2c(F)cccc21 | -0.81% |
| O=C(c1cccs1)N1CCCC(S(=O)(=O)F)C1 (stereo not drawn) | 73.5% |
| CC1CC(N(C)Cc2nc3ccccc3s2)C(=O)O1 (stereo not drawn) | 6.15% |
| N#Cc1ccc(N2CCC=C(F)C2)cn1 | 5.08% |
| Cc1cnc(C#N)c(Cl)n1 | 7.46% |
| CC(NC(=O)CCl)c1cccc(Cl)c1 (stereo not drawn) | 7.45% |
| CC(C)c1ccc(NC(=O)CCl)cc1 | 95.8% |
| N#Cc1nc(-c2ccc(Cl)cc2)oc1NCC1CCCO1 (stereo not drawn) | 6.43% |
| CN(C)C(=O)Sc1cnc2c(c1)c(=O)n(C)c(=O)n2C | 14.1% |
| CCn1c(C)cc(C(=O)Cn2cnc(C#N)n2)c1C | 0.239% |
| C=CC(=O)NC1CCCc2c1ccc(=O)n2C (stereo not drawn) | 9.61% |
| CN1C(=O)C(=C(C#N)C(=O)N2CCCC2)c2ccccc21 | 5.86% |
| CCCOc1ccc(S(=O)(=O)n2nc(C)cc2C)cc1C | 19.8% |
| CCN(Cc1cccc(C)c1)C(=O)CCl | 21.1% |
| C=CC(=O)NCC1(c2cccc(Cl)c2)CCOCC1 | 2.89% |
| N#Cc1ncccc1N1CCN(c2ccc(F)cc2)CC1 | 3% |
| Cl.O=C(CN1CCN(C(=O)CCl)CC1)Nc1cccc(F)c1 | 8.6% |
| CN(C)C(=O)Sc1ccccc1N.Cl | 3.58% |
| C=CC(=O)N1CCCC1c1ccc2c(c1)OCO2 (stereo not drawn) | 6.06% |
